This is an account of results in the supplement of paper PMC7266297.

One experiment deals with KB-3-1. The experiment can be described thus: growth inhibition relative to DMSO control (SRB); cervical cancer cells: KB-3-1 is the parent and KB-V1 overexpresses MDR1; SRB is the sulforhodamine B stain; higher = more growth inhibition. The settings on record: 1 µM; 72 h.
For the next experiment, the system named is KB-V1. The experiment is described as above. The settings on record: 1 µM; 72 h.

Where a name gives a salt, the structure may show the parent alone. This is one part of the list. Many values rest on one well or one pass, so single values are uncertain.
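Note: Read-out is SRB optical density at 490 nm, with the control being wells given 0.5% DMSO vehicle, and compound added one day after cells were plated.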

Consider `Cn1cc(/C=C/C(=O)c2cccc(F)c2)cc1/C=C/C(=O)NO`, for which the growth inhibition came to 23.9% in the experiment with KB-3-1 and 14.7% in the experiment with KB-V1.

For the compound `CCCc1nc(C(C)(C)O)c(C(=O)OCc2oc(=O)oc2C)n1Cc1ccc(-c2ccccc2-c2nnn[nH]2)cc1` [Olmesartan Medoxomil], the growth inhibition came out at 27.6% in the experiment on KB-3-1 and 11% in the experiment with KB-V1.

For the compound `C[C@H](NCc1ccc(OCc2cccc(F)c2)cc1)C(N)=O` [Safinamide Mesylate], the growth inhibition in the experiment on KB-3-1 was 33.9%; in the experiment with KB-V1 it was 19.7%.

For the compound `CN1CCN(C(c2ccccc2)c2ccccc2)CC1` [Cyclizine 2HCl], the growth inhibition in the experiment with KB-3-1 came to 12.8%; with KB-V1 it was 18.6%.

Turning to `CC(=O)Oc1cc(C(F)(F)F)ccc1C(=O)O` [Triflusal], the growth inhibition with KB-3-1 was below 0%; in the experiment on KB-V1, 2.2%.

Regarding `C[C@@]1(C(=O)Nc2ccc(F)nc2)CCCN1c1nc(Nc2cc(C3CC3)n[nH]2)c2cccn2n1`, the growth inhibition in the experiment on KB-3-1 was found to be 92.9%; in the experiment on KB-V1, 78.6%.

In the case of `NC(=O)[C@@H](CCC(F)(F)F)N(Cc1ccc(-c2ncon2)cc1F)S(=O)(=O)c1ccc(Cl)cc1`, the growth inhibition in the experiment on KB-3-1 was below 0%; with KB-V1, 36.3%.

Take `CNC[C@H](O)c1ccc(O)c(O)c1` [Epinephrine HCl]: the growth inhibition in the experiment with KB-3-1 is below 0%; in the experiment on KB-V1, 4.47%.

Regarding `COc1cc2c(cc1OC)CC(=O)N(CCCN(C)C[C@H]1Cc3cc(OC)c(OC)cc31)CC2` [Ivabradine HCl], the growth inhibition with KB-3-1 amounted to 21.6%; in the experiment on KB-V1, 19.9%.

With `Cn1c(=O)cc(N2CCC[C@@H](N)C2)n(Cc2cc(F)ccc2C#N)c1=O` [Trelagliptin], the results for the growth inhibition in the experiment on KB-3-1 and in the experiment on KB-V1 were 52.8% and 5.56%, respectively.

As to `CCCCC(=O)N(Cc1ccc(-c2ccccc2-c2nnn[nH]2)cc1)[C@H](C(=O)O)C(C)C` [Valsartan], the growth inhibition in the experiment on KB-3-1 is 46.6%; with KB-V1 it was 23.3%.

In the case of `CS(=O)(=O)c1ccc(-c2cnc(N)c(C(=O)Nc3ccccc3)n2)cc1`, the growth inhibition in the experiment on KB-3-1 was found to be 44.8%; in the experiment on KB-V1 it was 1.85%.

As for `CN1CCC(CNc2ccc3ncc(-c4cccc(OC(F)(F)F)c4)n3n2)CC1` [SGI-1776 free base], the growth inhibition is below 0% in the experiment with KB-3-1 and 58.9% in the experiment on KB-V1.

In the case of `O=C(O)C(O)Cc1ccc(O)c(O)c1` (configuration not stated) [Sodium Danshensu], the growth inhibition in the experiment with KB-3-1 and in the experiment on KB-V1 was below 0% each time.

As to `Cn1cc(CNCC2CCN(c3ncc(C(=O)NO)cn3)CC2)c2ccccc21`, the growth inhibition in the experiment with KB-3-1 came out at 100%; in the experiment with KB-V1, 97.4%.

Regarding `C[C@H](NC(=O)[C@@H](O)c1cc(F)cc(F)c1)C(=O)N[C@@H]1C(=O)N(C)c2ccccc2-c2ccccc21`, the growth inhibition with KB-3-1 is 40.7%; with KB-V1, 75.6%.

Consider `CCOC(=O)[C@H](CCc1ccccc1)N[C@@H](C)C(=O)N1C(=O)N(C)C[C@H]1C(=O)O` [Imidapril HCl], for which the growth inhibition in the experiment on KB-3-1 was below 0%; in the experiment with KB-V1 it was 25.2%.

`C#Cc1cccc(Nc2ncnc3cc4c(cc23)OCCOCCOCCO4)c1` [Icotinib]: the growth inhibition in the experiment on KB-3-1 was below 0%; in the experiment with KB-V1 it was 26.4%.

For `O=C(NOCC1CC1)c1ccc(F)c(F)c1Nc1ccc(I)cc1Cl`, the growth inhibition worked out at 89% with KB-3-1 and 92.1% in the experiment on KB-V1.

As for `CC1C(=O)OC2C(O)C34C5CC(C(C)(C)C)C36C(OC(=O)C6O)OC4(C(=O)O5)C12O` (configuration not stated) [Ginkgolide B], the growth inhibition in the experiment on KB-3-1 was 13%; in the experiment on KB-V1, 42.2%.

On to `NCCc1ccc(O)c(O)c1` [Dopamine HCl], for which the growth inhibition amounted to 27.8% in the experiment on KB-3-1 and 3.19% with KB-V1.

As to `CN(Cc1cnc2nc(N)nc(N)c2n1)c1ccc(C(=O)N[C@@H](CCC(=O)O)C(=O)O)cc1` [Methotrexate], the growth inhibition in the experiment with KB-3-1 is 49.1%; in the experiment with KB-V1 it was 35.3%.

On to `C[C@@]1(c2cc(-c3cncnc3)c(F)cc2F)CCSC(N)=N1`, for which the figures for the growth inhibition in the experiment with KB-3-1 and with KB-V1 were 28% and 19.6%, respectively.

With `CN1CCc2c(c3ccccc3n2Cc2ccc(C(=O)NO)cc2)C1` [Tubastatin A HCl], the results for the growth inhibition in the experiment on KB-3-1 and in the experiment with KB-V1 were 16.2% and below 0%, respectively.

Regarding `CCOc1cc2ncc(C#N)c(Nc3ccc(OCc4ccccn4)c(Cl)c3)c2cc1NC(=O)/C=C/CN(C)C` [Neratinib (HKI-272)], the growth inhibition in the experiment with KB-3-1 worked out at 61.1%; in the experiment on KB-V1, 43.9%.

`COc1nc(C)cnc1NS(=O)(=O)c1cccnc1-c1ccc(-c2nnco2)cc1` [Zibotentan (ZD4054)]: the growth inhibition turned out to be 0.324% in the experiment on KB-3-1 and 36% with KB-V1.

Regarding `CCCCOc1ccc(CC(=O)NO)cc1` [Bufexamac], the growth inhibition with KB-3-1 is 1.72%; in the experiment with KB-V1 it was 12.3%.

As to `N[C@H]1C[C@@H]1c1ccc(-c2cccc(O)c2)cc1`, the growth inhibition was 17.4% in the experiment on KB-3-1 and below 0% in the experiment on KB-V1.

`COc1cc2nccc(Oc3ccc(NC(=O)Nc4cc(C)on4)c(Cl)c3)c2cc1OC` [Tivozanib (AV-951)]: the growth inhibition in the experiment on KB-3-1 was 43.7%; in the experiment on KB-V1 it was 28.2%.

Consider `CC(C)CC(=O)Nc1n[nH]c2c1CN(C(=O)C1CCN(C)CC1)C2(C)C`, for which the growth inhibition with KB-3-1 came out at 95.3%; in the experiment with KB-V1, 39%.

Regarding `CNCc1ccc(C)c(NC(=O)c2ccc(Nc3nc(-c4ccccc4)c4ccccc4n3)cc2)c1`, the growth inhibition is 18.7% in the experiment with KB-3-1 and 0.355% in the experiment on KB-V1.

In the case of `COc1cc(N2CCC(N)CC2)ccc1Nc1ncc(Cl)c(-c2c[nH]c3ccccc23)n1`, the values for the growth inhibition in the experiment on KB-3-1 and in the experiment on KB-V1 were 32% and 41.4%, respectively.

Turning to `COc1cccc(-c2cc(=O)c3ccccc3o2)c1N`, the figures for the growth inhibition with KB-3-1 and in the experiment on KB-V1 were 30% and 40.4%, respectively.

On to `O[C@@H](COc1cccc2ncccc12)CN1CCN(C2c3ccccc3[C@@H]3[C@H](c4ccccc42)C3(F)F)CC1` (some centres not stated), for which the growth inhibition in the experiment with KB-3-1 amounted to 28.1%; in the experiment with KB-V1 it was 23.7%.

With `c1cc(-c2cnn3cc(-c4ccc(N5CCNCC5)cc4)cnc23)c2cccnc2c1`, the growth inhibition in the experiment on KB-3-1 turned out to be 74.6%; in the experiment with KB-V1, 95.8%.

On to `O=C(O)[C@]1(Cc2cccc(Nc3nccs3)n2)CC[C@@H](Oc2cccc(Cl)c2F)CC1`, for which the growth inhibition came to 85.2% in the experiment with KB-3-1 and 83.8% in the experiment with KB-V1.
